Laboratory results reported in PubChem BioAssay AID1347073 (National Center for Advancing Translational Sciences (NCATS), 2019).
Among all 45,000 compounds or so, about 200 (0.44%) were called active. Inconclusive results, whose numbers are uncertain, are shown with a selection of clear calls. The call rests on the fitted dose curve; in most records, active means well fitted activation curve with a large enough effect; inconclusive means small, poorly fitted or top-dose-only effect; inactive means no such curve, though single readings can be large or run the other way. Where the call is inconclusive, the potency comes from a doubtful curve fit.

assay: qHTS of TDP-43 Inhibitors: NCGC Sytravon Library Screen; details: yeast TDP-43 toxicity rescue, BacTiter-Glo growth, 24 h; series mostly up to 46.1 µM; further: nearly all actives have a fitted effect of over 55% in size
Method in brief: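 TDP-43-expressing yeast, pregrown in raffinose, seeded at OD600 0.02 in galactose medium with compound for 24 hr at 30 deg C. Growth read by BacTiter-Glo luminescence, so rescue of toxicity appears as activation.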
Potency means the concentration at half of the fitted maximal effect; tags describe the fitted curve by direction and shape.

SMILES | Potency
COc1ccccc1-c1cc(C(=O)N2CCN(c3ccccc3)CC2)no1 | inconclusive: 20 µM [activator, partial curve, poor fit]
O=[N+]([O-])c1ncccc1OCc1ccccc1Br | inconclusive: 12.6 µM [activator, partial curve, poor fit]
COc1ccc(NCC(=O)n2c(C)c(C)c3ccccc32)cc1OC | inactive
COc1ccc(NC(=O)c2ccc(F)c(F)c2)c2ccccc12 | inconclusive: 17.8 µM [activator, partial curve, poor fit]
O=C(O)c1cccc(Nc2ccncc2[N+](=O)[O-])c1 | inactive
COc1ccc(S(=O)(=O)Nc2cccc(F)c2C)cc1C(=O)N1CCOCC1 | inactive
CCOc1ccccc1N1CCN(C(=O)CCCc2nc3ccccc3s2)CC1 | inconclusive: 10 µM [activator, partial curve, poor fit]
CCCCCC(=O)c1ccc(O)cc1O | inconclusive: 15.8 µM [activator, partial curve, poor fit]
N/C(Cc1ccc([N+](=O)[O-])cc1)=N\OC(=O)CC1CCCCC1 | inconclusive: 3.16 µM [activator, partial curve, poor fit]
CC1CN(c2ccc([N+](=O)[O-])cc2F)CCN1C(=O)c1ccco1 (configuration not stated) | inconclusive: 11.2 µM [activator, partial curve, poor fit]
CC(C)c1ccc(/C=N/n2c(COc3ccccc3)n[nH]c2=S)cc1 | inconclusive: 22.4 µM [activator, partial curve, poor fit]
Cc1ccc(NCc2cccn2-c2nnc(N3CCC(C(=O)NCc4ccc(OC(C)C)cc4)CC3)s2)cc1 | inconclusive: 20 µM [activator, partial curve, poor fit]
CC(=O)c1c(C)[nH]c(C(=O)OCc2cccc(C)c2)c1C | inconclusive: 20 µM [activator, partial curve, poor fit]
Cc1ccc(S(=O)(=O)/N=C2/NC(=O)/C(=C\c3ccccc3)S2)cc1 | inconclusive: 1.58 µM [activator, partial curve, poor fit]
Cn1cc(CCC(=O)NCc2cccc(Cl)c2)c2ccccc21 | inconclusive: 8.91 µM [activator, partial curve, poor fit]
O=c1c2ccccc2cnn1Cc1cccc(Br)c1 | inconclusive: 11.2 µM [activator, partial curve, poor fit]
N#Cc1ccsc1NC(=O)CN1CCN(S(=O)(=O)c2ccccc2C(F)(F)F)CC1 | inconclusive: 35.5 µM [activator, partial curve, poor fit]
